Test results as given in the supplement of paper PMC4604168 (melanoma cell lines).
The other results are listed elsewhere or left out. Single values are uncertain, as repeats are few or missing.

test system: MEL-HO; assay: cell count relative to DMSO control; melanoma cells; higher = more viable cells; conditions: library dose: standard library concentration; 72 h
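Also: cells treated in 1,536-well plates, then fixed and DAPI-stained, with nuclei counted from automated high-throughput microscope images.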

Row | Structure (SMILES) | cell count
1 | Cn1nnc2c(C(N)=O)ncn2c1=O [temozolomide] + Oc1nc(-c2ccc(C(F)(F)F)cc2)nc2c1CSCC2 [XAV939] (first compound 10 µM, partner dose 10 µM) | 84.9%
2 | O=C(Nc1cc(C(F)(F)F)cc(C(F)(F)F)c1)c1cc(Cl)ccc1O + C[C@]1(c2nc3c(C(N)=O)cccc3[nH]2)CCCN1 [Veliparib] (first compound 0.08 µM, partner dose 7 µM) | 70.6%
3 | O=C(O)c1ccc2c(c1)nc(Nc1cccc(Cl)c1)c1ccncc12 + O=C(Nc1ccccc1)c1cc([N+](=O)[O-])ccc1Cl [GW9662] (first compound 2 µM, partner dose 10 µM) | 46.1%
4 | O=C(O)c1ccc2c(c1)nc(Nc1cccc(Cl)c1)c1ccncc12 + Cn1cc(/C=C2\C(=O)Nc3cccnc32)c2ccccc21 [GW441756] (first compound 2 µM, partner dose 2 µM) | 67.8%
5 | O=C(O)[C@@H]1[O][Sb](=[O])([O][Sb]2(=[O])[O][C@H]([C@H](O)CO)[C@H](O)[C@H](C(=O)O)[O]2)[O][C@H]([C@H](O)CO)[C@@H]1O (stereo partly specified) [stibogluconate] + COc1ccc2c(c1)CCC1C2CCC2(C)C(NCCCCCCN3C(=O)C=CC3=O)CCC12 [U73122] (first compound 10 µM, partner dose 2 µM) | 102%

test system: MZ2-MEL; assay: as above; conditions: library dose: standard library concentration; 72 h

Row | Structure (SMILES) | cell count
6 | O=C(O)c1ccc2c(c1)nc(Nc1cccc(Cl)c1)c1ccncc12 + COc1cc(N2CCC(N3CCN(C)CC3)CC2)ccc1Nc1ncc(Cl)c(Nc2ccccc2S(=O)(=O)C(C)C)n1 [NVP-TAE684] (first compound 2 µM, partner dose 0.4 µM) | 75%
7 | O=C(Nc1cc(C(F)(F)F)cc(C(F)(F)F)c1)c1cc(Cl)ccc1O + COc1ccc(COc2ccc(Cc3cnc(N)nc3N)cc2OC)cc1 [GW2580] (first compound 0.08 µM, partner dose 5 µM) | 87%
8 | O=C(O)c1ccc2c(c1)nc(Nc1cccc(Cl)c1)c1ccncc12 + CCc1ccc(CCOc2ccc(CC3SC(=O)NC3=O)cc2)nc1 [pioglitazone] (first compound 2 µM, partner dose 10 µM) | 69.2%
9 | O=C(O)c1ccc2c(c1)nc(Nc1cccc(Cl)c1)c1ccncc12 + O=c1cc(-c2cccc3c2Sc2ccccc2S3)oc(N2CCOCC2)c1 [KU55933] (first compound 2 µM, partner dose 5 µM) | 56.7%
10 | O=C(Nc1cc(C(F)(F)F)cc(C(F)(F)F)c1)c1cc(Cl)ccc1O + CCc1ccc(CCOc2ccc(CC3SC(=O)NC3=O)cc2)nc1 [pioglitazone] (first compound 0.08 µM, partner dose 10 µM) | 106%
11 | O=C(O)c1ccc2c(c1)nc(Nc1cccc(Cl)c1)c1ccncc12 + O=C(Nc1ccccc1)c1cc([N+](=O)[O-])ccc1Cl [GW9662] (first compound 2 µM, partner dose 10 µM) | 44.6%
12 | O=C(O)[C@@H]1[O][Sb](=[O])([O][Sb]2(=[O])[O][C@H]([C@H](O)CO)[C@H](O)[C@H](C(=O)O)[O]2)[O][C@H]([C@H](O)CO)[C@@H]1O (stereo partly specified) [stibogluconate] + COc1ccc2c(c1)CCC1C2CCC2(C)C(NCCCCCCN3C(=O)C=CC3=O)CCC12 [U73122] (first compound 10 µM, partner dose 2 µM) | 118%

test system: MeWo; assay: as above; conditions: library dose: standard library concentration; 72 h

Row | Structure (SMILES) | cell count
13 | O=C(Nc1cc(C(F)(F)F)cc(C(F)(F)F)c1)c1cc(Cl)ccc1O + Nc1ncn([C@H]2C[C@H](O)[C@@H](CO)O2)c(=O)n1 [decitabine] (first compound 0.08 µM, partner dose 0.5 µM) | 73%
14 | O=C(O)[C@@H]1[O][Sb](=[O])([O][Sb]2(=[O])[O][C@H]([C@H](O)CO)[C@H](O)[C@H](C(=O)O)[O]2)[O][C@H]([C@H](O)CO)[C@@H]1O (stereo partly specified) [stibogluconate] + N#Cc1c(O)c2c(-c3ccc(-c4ccccc4O)cc3)csc2[nH]c1=O [A769662] (first compound 10 µM, partner dose 10 µM) | 101%
15 | O=C(Nc1ccccc1)c1cc([N+](=O)[O-])ccc1Cl + Cc1cc([N+](=O)[O-])ccc1NS(=O)(=O)c1cc(Cl)ccc1Cl [FH535] (first compound 10 µM, partner dose 5 µM) | 76.3%
16 | O=C(Nc1cc(C(F)(F)F)cc(C(F)(F)F)c1)c1cc(Cl)ccc1O + Nc1ccn([C@@H]2O[C@H](CO)[C@@H](O)C2(F)F)c(=O)n1 [gemcitabine] (first compound 0.08 µM, partner dose 0.002 µM) | 43.5%
17 | O=C(Nc1cc(C(F)(F)F)cc(C(F)(F)F)c1)c1cc(Cl)ccc1O + C=CCn1c(=O)c2cnc(Nc3ccc(N4CCN(C)CC4)cc3)nc2n1-c1cccc(C(C)(C)O)n1 [MK1775] (first compound 0.08 µM, partner dose 0.1 µM) | 79%
18 | O=C(Nc1cc(C(F)(F)F)cc(C(F)(F)F)c1)c1cc(Cl)ccc1O + CCCCCCCCCCCC1=C(O)C(=O)C=C(O)C1=O [Embelin] (first compound 0.08 µM, partner dose 6 µM) | 104%
19 | Cn1nnc2c(C(N)=O)ncn2c1=O [temozolomide] + CCN(CC)CCCCNc1ncc2cc(-c3cc(OC)cc(OC)c3)c(NC(=O)NC(C)(C)C)nc2n1 [PD173074] (first compound 10 µM, partner dose 0.5 µM) | 95.4%
20 | O=C(O)[C@@H]1[O][Sb](=[O])([O][Sb]2(=[O])[O][C@H]([C@H](O)CO)[C@H](O)[C@H](C(=O)O)[O]2)[O][C@H]([C@H](O)CO)[C@@H]1O (stereo partly specified) [stibogluconate] + Nc1ncn([C@H]2C[C@H](O)[C@@H](CO)O2)c(=O)n1 [decitabine] (first compound 10 µM, partner dose 0.5 µM) | 70.7%
21 | O=C(O)c1ccc2c(c1)nc(Nc1cccc(Cl)c1)c1ccncc12 + C=CCn1c(=O)c2cnc(Nc3ccc(N4CCN(C)CC4)cc3)nc2n1-c1cccc(C(C)(C)O)n1 [MK1775] (first compound 2 µM, partner dose 0.1 µM) | 89.1%
22 | O=C(O)c1ccc2c(c1)nc(Nc1cccc(Cl)c1)c1ccncc12 + COc1cc(N2CCC(N3CCN(C)CC3)CC2)ccc1Nc1ncc(Cl)c(Nc2ccccc2S(=O)(=O)C(C)C)n1 [NVP-TAE684] (first compound 2 µM, partner dose 0.4 µM) | 73.2%
23 | O=C(O)c1ccc2c(c1)nc(Nc1cccc(Cl)c1)c1ccncc12 + Cc1cc([N+](=O)[O-])ccc1NS(=O)(=O)c1cc(Cl)ccc1Cl [FH535] (first compound 2 µM, partner dose 5 µM) | 68.7%
24 | O=C(Nc1cc(C(F)(F)F)cc(C(F)(F)F)c1)c1cc(Cl)ccc1O + Cn1c(Nc2ccc(C(F)(F)F)cc2)nc2cc(Oc3ccnc(-c4ncc(C(F)(F)F)[nH]4)c3)ccc21 [CHIR265] (first compound 0.08 µM, partner dose 0.4 µM) | 80.4%
25 | O=C(O)[C@@H]1[O][Sb](=[O])([O][Sb]2(=[O])[O][C@H]([C@H](O)CO)[C@H](O)[C@H](C(=O)O)[O]2)[O][C@H]([C@H](O)CO)[C@@H]1O (stereo partly specified) [stibogluconate] + COc1cc2ncnc(Nc3ccc(Oc4ccccc4)cc3)c2cc1OC [SrcI1] (first compound 10 µM, partner dose 10 µM) | 78.9%
26 | O=C(O)c1ccc2c(c1)nc(Nc1cccc(Cl)c1)c1ccncc12 + C#Cc1cccc(Nc2ncnc3cc(OCCOC)c(OCCOC)cc23)c1 [erlotinib] (first compound 2 µM, partner dose 4 µM) | 62.4%
27 | Cc1cc(N2CCOCC2)cc2[nH]c(-c3c(NC[C@@H](O)c4cccc(Cl)c4)cc[nH]c3=O)nc12 + Oc1cc(-c2nc(-c3ccccc3)[nH]c2-c2ccncc2)ccc1Cl [L779450] (first compound 1 µM, partner dose 1 µM) | 54.9%
28 | O=C(O)[C@@H]1[O][Sb](=[O])([O][Sb]2(=[O])[O][C@H]([C@H](O)CO)[C@H](O)[C@H](C(=O)O)[O]2)[O][C@H]([C@H](O)CO)[C@@H]1O (stereo partly specified) [stibogluconate] + O=S(=O)(c1ccccc1)N(CC(F)(F)F)c1ccc(C(O)(C(F)(F)F)C(F)(F)F)cc1 [T0901317] (first compound 10 µM, partner dose 7 µM) | 79.3%
29 | O=C(O)[C@@H]1[O][Sb](=[O])([O][Sb]2(=[O])[O][C@H]([C@H](O)CO)[C@H](O)[C@H](C(=O)O)[O]2)[O][C@H]([C@H](O)CO)[C@@H]1O (stereo partly specified) [stibogluconate] + Cn1cncc1[C@@](N)(c1ccc(Cl)cc1)c1ccc2c(c1)c(-c1cccc(Cl)c1)cc(=O)n2C [tipifarnib] (first compound 10 µM, partner dose 0.05 µM) | 89%
30 | O=C(Nc1cc(C(F)(F)F)cc(C(F)(F)F)c1)c1cc(Cl)ccc1O + COc1ccc(COc2ccc(Cc3cnc(N)nc3N)cc2OC)cc1 [GW2580] (first compound 0.08 µM, partner dose 5 µM) | 97.4%
31 | O=C(Nc1cc(C(F)(F)F)cc(C(F)(F)F)c1)c1cc(Cl)ccc1O + Cc1cc([N+](=O)[O-])ccc1NS(=O)(=O)c1cc(Cl)ccc1Cl [FH535] (first compound 0.08 µM, partner dose 5 µM) | 93.3%
